Results reported in PubChem BioAssay AID686978 (National Center for Advancing Translational Sciences (NCATS), 2013).
In all, about 420,000 compounds went through this assay and about 64,000 (15%) were called active. The shares of active, inactive and inconclusive entries below differ from those in the screen. Calls follow the shape of the dose curve; as a rule, active = well fitted inhibition curve with a large enough effect; inconclusive = small, poorly fitted or top-dose-only effect; inactive = flat fitted curve, though single readings scatter. No potency is given beside an inconclusive call; the fits are too rough.
% is scaled to controls: 0 for no effect and ±100 for the full control effect; potency is read from the fitted curve at half-maximal effect; tags tell the direction and shape of the fitted curve.

Assay: qHTS for Inhibitors of human tyrosyl-DNA phosphodiesterase 1 (TDP1): qHTS in cells in absence of CPT; also: nearly all actives have a fitted effect of over 55% in size
Settings: DT40 Tdp1-/- hTDP1 cells, no CPT, ATP luminescence, 48 h; activity change, negative = growth inhibition: at 46.2 µM (top of the series) unless noted
Summary of the method: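 Compound effects on proliferation are scored in DT40 Tdp1-/-;hTDP1 cells in the absence of CPT. ATP levels (CellTiter-Glo luminescence) are recorded after a ≥48 hr, 37 °C incubation.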
In the case of N#CC1=C(N)N(c2cccc(Cl)c2)C2=C(C(=O)CCC2)C1c1cc(CN2CCOCC2)cs1 (stereo not given), the Potency is reported as inconclusive [inhibitor, single point].
With COc1cccc(NC(=O)Nc2cc(C)ccc2OC)c1 the Potency was inconclusive [inhibitor, single point].
In the case of Cc1ccc2cc(C#N)c(N3CCCC3)nc2c1C, the activity change, negative = growth inhibition is reported as inconclusive: -34.3% [inhibitor].
With O=C(OCc1c(-c2ccccc2)ncc2ccccc12)c1ccco1 the Potency was “inactive”.
In the case of CCCC(=O)Nc1nc2nc(-c3ccccc3)cc(-c3ccccc3)n2n1, the Potency is reported as inconclusive [inhibitor, partial curve].
With Cc1onc(-c2ccccc2)c1C(=O)N1CCCCCC1 the Potency was “inactive”.
In the case of CCOc1ccc(CCNC(=O)c2cccc(-n3cnnn3)c2)cc1OCC, the Potency is reported as inconclusive [inhibitor, single point].
In the case of O=c1[nH]c(SCc2ccc(OC(F)(F)F)cc2)nc2c1CCC2, the Potency is reported as inconclusive [inhibitor, single point].
With Cc1cc2ccccc2n1CCNC(=O)c1ccccc1 the Potency was inconclusive [inhibitor, single point].
With CSc1cccc(NC(=O)CN2CCN(Cc3ccccc3C)S2(=O)=O)c1 the Potency was inconclusive [inhibitor, single point].
With C[C@@H]1CN([C@@H](C)CO)S(=O)(=O)c2ccc(Br)cc2O[C@H]1CN(C)C(=O)c1ccncc1 the Potency was inconclusive [inhibitor, single point].
In the case of Cc1ccc(-c2nnc(-c3cccc(NC(=O)c4cccs4)c3)o2)cc1, the Potency is reported as active: 23.1 µM.
For Cc1cccc(N2C(=O)CS(=O)(=O)C23C(=O)N(Cc2c(F)cccc2Cl)c2ccccc23)c1 (stereo not given), the Potency was active: 23.1 µM.
In the case of COc1cccc(CC(=O)Nc2ccc3c(c2)CCC3)c1, the Potency is reported as inconclusive [inhibitor, single point].
With COc1ccc(Cl)cc1NC(=O)CN(C)C(=O)c1cc(-c2ccncc2)nc2ccccc12 the Potency was active: 14.6 µM.
With O=C(NC(=S)N1CCN(c2ccc(Cl)cc2[N+](=O)[O-])CC1)c1cccs1 the Potency was active: 20.6 µM.
In the case of CCOC(=O)c1c(NC(=O)CSc2nnc(-c3ccncc3)n2Cc2ccco2)sc(C)c1C, the Potency is reported as inconclusive [inhibitor, partial curve].
In the case of COc1ccc(NC(=O)C2(C)Cc3c(-c4cccc(C(F)(F)F)c4)ccnc3O2)cn1 (stereo not given), the Potency is reported as active: 2.91 µM.
For COc1ccc(CNC(=O)c2csc(Cc3ccc(Cl)cc3)n2)cc1, the Potency was “inactive”.
For Cc1ccccc1Nc1nc(-c2ccccc2)c(C(=O)Nc2cccnc2)s1, the Potency was inconclusive [inhibitor, single point].
For CCc1nc2ccc(C(=O)NC3CCN(Cc4ccccc4)CC3)cn2c1N(C)Cc1cccs1, the Potency was active: 16.4 µM.
With O=C(CN1CCN(Cc2ccccc2Cl)C1=O)NCCCN1CCOCC1 the Potency was “inactive”.
With Cc1cc(N)c(-n2cc3c(c2-c2ccc(Br)cc2)c(=O)n(C)c(=O)n3C)cc1C the Potency was active: 13 µM.
For C=C(Br)CN1[C@@H](Cc2ccccc2)[C@H](O)[C@@]23C=C[C@@H](C[C@@H]2S1(=O)=O)O3, the Potency was inconclusive [inhibitor, single point].
For CCCNC(=O)NC(=O)CSc1nc2cc(C(=O)OC)ccc2c(=O)n1-c1ccccc1, the Potency was inconclusive [inhibitor, partial curve, poor fit].
In the case of NS(=O)(=O)c1cccc(NC(=O)CSc2nc3ccccc3n2-c2ccccc2)c1, the Potency is reported as inconclusive [inhibitor, single point].
For CCn1c(=O)c2c(nc3n2CCCN3Cc2ccccc2)n(C)c1=O, the Potency was inconclusive [inhibitor, partial curve, poor fit].
In the case of Cc1cc(C)cc(Oc2coc3cc(OCC(=O)NC4CCCCC4)ccc3c2=O)c1, the Potency is reported as active: 20.6 µM.
With CC(=O)Nc1ccccc1NC(=O)c1cc(C)cc(C)c1 the Potency was inconclusive [inhibitor, single point].
With COc1ccc(C(c2c(O)cc(C)oc2=O)c2c(O)cc(C)oc2=O)cc1 the Potency was “inactive”.
With O=C(c1ccco1)N1CCN(c2c([N+](=O)[O-])nn(-c3cccc(Cl)c3)[n+]2[O-])CC1 the Potency was inconclusive [inhibitor, single point].
For CC(C)c1ccccc1NC(=O)COC(=O)c1cc(=O)[nH]c(=O)[nH]1, the Potency was “inactive”.
With CC(C)N=C(NS(=O)(=O)NC(=O)c1ccccc1)c1ccccc1 the Potency was “inactive”.
With Cc1ccc2onc(CNC(=O)NCc3cccc(Cl)c3)c2c1 the Potency was inconclusive [inhibitor, single point].
With COC(=O)C1=CN(c2ccc(Cl)cc2)C=C(C(=O)OC)C1c1ccc([N+](=O)[O-])cc1 the Potency was “inactive”.
In the case of C=CCN(CC=C)S(=O)(=O)c1ccc2nc(NC(=O)C(C)C)sc2c1, the Potency is reported as active: 2.59 µM.
For CCc1ccc(-c2cc(C(=O)NCc3ccco3)c3ccccc3n2)s1, the Potency was inconclusive [inhibitor, partial curve].
For COC(=O)C1=C(C)NC(C)=C(C(=O)OC)C1C(=O)OCc1nnc(-c2ccccc2Cl)o1, the Potency was inconclusive [inhibitor, single point].
With CCCc1cc(OC)c2c(c1)OCO2 the Potency was “inactive”.
For CC(=O)[C@H]1CC[C@H]2[C@@H]3CCC4=CC(=O)CC[C@]4(C)[C@H]3[C@H](O)C[C@]12C, the Potency was active: 16.4 µM.
For CCOc1ccc(-c2cc(C(=O)Nc3ccc(NC(C)=O)cc3)no2)cc1, the Potency was “inactive”.
With C/C(=N\NC(=O)c1ccccc1NC(=O)c1ccc(Cl)cc1)c1ccncc1 the Potency was active: 1.16 µM.
For Cc1ccc(CSCCNC(=O)CN(c2ccc(F)cc2)S(C)(=O)=O)cc1, the Potency was “inactive”.
In the case of Cc1ccccc1-c1cc(C(=O)NCc2cccc(C(F)(F)F)c2)nn1CC1CC(c2cccc([N+](=O)[O-])c2)=NO1 (stereo not given), the Potency is reported as active: 23.1 µM.
With CC(=O)c1ccc2c(c1)C1C=CCC1C(c1cc3c(cc1Br)OCO3)N2 (stereo not given) the Potency was active: 4.61 µM.
For CCc1cc2c(=O)n(Cc3ccco3)c(SCC(=O)N(C)C3CCS(=O)(=O)C3)nc2s1 (stereo not given), the Potency was inconclusive [inhibitor, single point].
With CC(C)NS(=O)(=O)c1ccc(NC(=O)C2CC3C=CC2C3)cc1 (stereo not given) the Potency was inconclusive [inhibitor, single point].
With O=C(c1cccn2c(=O)c3cc(Cl)ccc3nc12)N1CCN(c2ccccc2F)CC1 the activity change, negative = growth inhibition was inconclusive: -31.8% [inhibitor].
In the case of Cc1ccccc1OCC(O)CN1CCN(CC(O)COc2ccccc2C)CC1 (stereo not given), the Potency is reported as inconclusive [inhibitor, single point].
For CC1CCN(c2ccc(C(=O)O)cc2NS(=O)(=O)c2ccc(Br)cc2)CC1, the Potency was “inactive”.
With COc1cc(OC)cc(C(=O)N2CCN(S(=O)(=O)c3ccc4c(c3)OCCO4)CC2)c1 the Potency was inconclusive [inhibitor, single point].
For CN(C)c1ccc(/C=C(\C#N)C(=O)Nc2nc3c(s2)CCN(Cc2ccccc2)C3)cc1, the Potency was inconclusive [inhibitor, partial curve].
In the case of O=C(c1ccc(Cl)c(S(=O)(=O)N2CCCC2)c1)N1CCN(c2ncccn2)CC1, the activity change, negative = growth inhibition is reported as inconclusive: -32.3% [inhibitor].
For Nc1nonc1-c1nc2ccccc2n1Cc1cccc(Cl)c1, the Potency was “inactive”.
In the case of O=C(Nc1ccc(N2CCN(C(=O)c3cccs3)CC2)cc1)c1ccccc1F, the Potency is reported as active: 18.4 µM.
In the case of CCOc1ccc(NC(=O)CC2C(=O)N(c3ccc(C)cc3)C(=O)N2CCC2=CCCCC2)cc1 (stereo not given), the Potency is reported as inconclusive [inhibitor, single point].
In the case of CCOc1ccc(-n2nc(CO)c(C(=O)NCCCc3ccccc3)n2)cc1, the Potency is reported as active: 23.1 µM.
For Cc1cc(C)c(C)c(OC(=O)c2sc(Cl)nc2C)c1, the Potency was active: 8.2 µM.
With NC(=O)c1cccc(-c2ccnc3c2CC(C(=O)NCc2cccc(Cl)c2)O3)c1 (stereo not given) the Potency was active: 14.6 µM.
For Cc1ccc(NC(=O)c2cc([N+](=O)[O-])ccc2NCc2cccnc2)cc1Cl, the Potency was inconclusive [inhibitor, single point].
In the case of CCCCn1nnnc1C(c1cc2ccccc2o1)N1CCN(c2ccncc2)CC1 (stereo not given), the Potency is reported as active: 23.1 µM.
For COc1cc(NC(=O)CSc2nnc3ccc(-c4ccncc4)nn23)cc(OC)c1, the Potency was inconclusive [inhibitor, partial curve, poor fit].
In the case of O=C(CN1c2ccccc2Sc2ccccc21)NNC(=O)Nc1cccc(Cl)c1, the Potency is reported as active: 10.3 µM.
With O=C(Nc1ccc(F)cc1)N1CCCN(c2nccc(C(F)(F)F)n2)CC1 the Potency was inconclusive [inhibitor, partial curve].
With CC(=O)Nc1ccc(S(=O)(=O)N2CCC(c3nnnn3-c3ccccc3)CC2)cc1 the Potency was inconclusive [inhibitor, full curve, poor fit].
With CCOC(=O)[C@H]1[C@H]2COc3ccc(Br)cc3[C@H]2N2C(=O)CNC(=O)[C@@]12C the Potency was “inactive”.
In the case of CN(C)S(=O)(=O)c1ccc(N2CCCC2)c(C(=O)OCC(=O)N2CCN(c3ccccc3)CC2)c1, the Potency is reported as inconclusive [inhibitor, single point].
With CCOc1ccccc1N1CCN(C(=O)c2csc(C)c2CC)CC1 the Potency was active: 20.6 µM.
For CCOC(=O)N1CCN(C(=O)c2ccc3c(c2)NC(=O)/C(=C/c2ccccc2)S3)CC1, the Potency was inconclusive [inhibitor, single point].
In the case of CCCCN(C=O)c1c(CC)nc2c(OCC(=O)N3CCOCC3)cccn12, the Potency is reported as “inactive”.
